# Reference: the supplement of paper PMC10338343
# ± gives the standard deviation. This is a selection; strong and weak results do not stand in their true shares.
# Test system: MIWI (PIWIL1) piRISC loaded with piRNA #1 (30 nt)
# Assay: pre-steady-state target cleavage rate (min^-1); MIWI and MILI are mouse PIWI proteins and EfPiwi is from a freshwater sponge; tags in brackets are library labels; higher = faster piRNA-guided slicing of the target
# Details: guide: piRNA #1 5'p-UGAGGUAGUAGGUUGUAUAGUAUCCAGAGG; auxiliary factor: 500 nM mouse GTSF1
# Method in brief: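 Three pooled Cleave-'n-Seq trials supplied the data, with k3 capped at 0.0001 min^-1. In each, […] transcribed, DNA-blocked target RNA library and 1 nM active affinity-purified piRISC with one synthetic guide reacted in HEPES–potassium acetate buffer at 33 °C for 0–8 or 0–960 min, with or without 500 nM GTSF1 partner protein. Uncleaved targets were sequenced and normalised to depth and to weakly complementary targets. A burst-and-steady-state fit provided the pre-steady-state cleavage rate.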
# 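Note: 1 nM active piRISC with 0.1 nM target library at 33 °C single turnover.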
row,Sequence,pre-steady-state target cleavage rate
1,GGUCUGGAUACUAUACAACCUAUCUACCUCA,0.354 ± 0.025
2,GGAGACCUAACUAUACAACCUUCAACCUCA,0.0121 ± 0.0035
3,GCUCUGGAUACUAGACAACCUACUACCUCA,1.78 ± 0.1
4,CCUCUGGAUUACUAUACAACCUACUACCUCA,1.9 ± 0.12
5,GCUCUGGAUACUAUACAACUACUACCUCA,0.565 ± 0.035
6,GGACAGGAUACUAUACUACCUACUACCUCA,1.45 ± 0.1
7,GGAGUGCAUACUUUACAACCUACUACCUCA,1.26 ± 0.086
8,GGAGAGGAUACUAAACAACCUACUACGUCA,0.279 ± 0.022
9,GGAGACCUUAGUAUACAACCUUCUACCUCA,0.119 ± 0.018
10,GGAGUGGAUACUAUACAAGCUAGUACCUCA,0.243 ± 0.035
11,GGAGACCUAUGAUAUCUACCUACUACCUCA,< 0.0001
12,GCUCUGGAUACUAUAGUACCUACUACCUCA,1.06 ± 0.082
13,GGAGACCAUAGUAUACAACCUACAACCUCA,0.361 ± 0.059
14,GGAGUGGAUACUAUACUAGCUACUACCUCA,0.437 ± 0.03
15,GGAGACCUUACUGUACAACCUACUACCUCA,0.655 ± 0.077
16,GGAGACGAUACUAUACAACCUACUACGUCA,0.801 ± 0.057
17,GCUCUGGAUACUAUACAACCUACAACCUGA,0.744 ± 0.14
18,GGAGACCUAACUAUACAACCUAGAACCUCA,0.00779 ± 0.0042
19,GGAGACCAUACUUUACAAGCUACUACCUCA,0.724 ± 0.05
20,GGAGACCUAUCUAUACAACCAACUAGCUCA,0.0047 ± 0.0022

row,Sequence,pre-steady-state target cleavage rate
1,GGACUGCAUUCUAUACAACCUACUACCUCA,1.2 ± 0.12
2,GGAGACCUUCACUAUACAACCUACUACCUCA,1.38 ± 0.15
3,GGAGACGAUAGUAUACAACGUACUACCUCA,0.447 ± 0.051
4,GGAGACCUUUCAAUACAACCUACUACCUCA,0.086 ± 0.025
5,GGAGACCUAUGUAUACAACCUACGACCUCA,0.0158 ± 0.0033
6,CCUCUGGAUACUAUACUAACCUACUACCUCA,0.0165 ± 0.0057
7,GGAGAGGAUUCUAUACAACCAACUACCUCA,0.0987 ± 0.011
8,GGACUGGAUACUAUAGAACCUACUACCUGA,0.0735 ± 0.019
9,GGAGAGGAUAGUAUACAUCCUACUACCUCA,0.182 ± 0.027
10,GGAGACCUUACUAAUACAACCUACUACCUCA,0.672 ± 0.06
11,GGAGACCAUACUGAUACAACCUACUACCUCA,0.785 ± 0.064
12,GGAGACCUAUGAUAACAACCUACAUGGAGA [g8:g16:cont:t1A],< 0.0001
13,GGAGAGGAUACUAAACAACCUACUACCUGA,0.24 ± 0.031
14,GGUCUGGUUACUAUACAACCUACAACCUCA,0.39 ± 0.04
15,GGUCUGGAGUACUAUACAACCUACUACCUCA,1.57 ± 0.11
16,GGAGACCAUACUAUUCAACCUACUAGCUCA,0.479 ± 0.046
17,GGAGACCAUACUAUACAACCACUACCUCA,0.00781 ± 0.0028
18,GGAGACCAUACUAUACAACCUACUAGCACA,0.228 ± 0.042
19,GGAGACCUAUCUAAACAACCUUCUACCUCA,0.00561 ± 0.0024
20,GGAGACCAUUGAAUACAACCUACUACCUCA,0.0064 ± 0.0037
